Experimental data reported in PubChem BioAssay AID485294 (National Center for Advancing Translational Sciences (NCATS), 2010).
About 150 (0.041%) of roughly 370,000 compounds were called active. The inconclusive results got no clear call from the source; some entries with a clear call stand among them for comparison. The call rests on the fitted dose curve; in most records, active means well fitted inhibition curve with a large enough effect; inconclusive means small, poorly fitted or top-dose-only effect; inactive means flat fitted curve, though single readings scatter. Potencies of inconclusive entries are left out as doubtful fits.

Biological target: Beta-lactamase (Escherichia coli (strain K12)) (UniProt P00811)
Chain of UniProt P00811 (P00811 whole entry, looked up): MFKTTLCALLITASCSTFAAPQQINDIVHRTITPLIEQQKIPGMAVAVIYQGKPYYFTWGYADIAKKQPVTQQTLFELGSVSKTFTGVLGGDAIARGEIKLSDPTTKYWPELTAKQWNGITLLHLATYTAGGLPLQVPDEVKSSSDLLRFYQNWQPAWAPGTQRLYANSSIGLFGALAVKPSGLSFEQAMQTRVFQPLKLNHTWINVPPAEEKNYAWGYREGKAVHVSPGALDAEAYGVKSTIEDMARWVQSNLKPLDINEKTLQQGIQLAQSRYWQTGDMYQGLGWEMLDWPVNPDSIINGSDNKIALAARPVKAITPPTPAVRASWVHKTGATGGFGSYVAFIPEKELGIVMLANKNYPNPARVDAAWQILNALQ
Assay: qHTS Inhibitors of AmpC Beta-Lactamase (assay with detergent); further: nearly all actives have a fitted effect of over 25% in size
Conditions: AmpC hydrolysis of nitrocefin, absorbance 480 nm, 0.01% Triton; series mostly up to 114 µM
Outline: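 AmpC (5.3 nM in the dispensed reagent) in 20 mM phosphate pH 7.0 with 0.01% (detergent screen) or 0.0001% Triton X-100 was preincubated with compounds for 15 min at room temperature. Nitrocefin was then added from an 800 uM solution, and hydrolysis was followed at 480 nm.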
Potency means the concentration at half of the fitted maximal effect; tags describe the fitted curve by direction and shape.

| Compound | Potency |
| --- | --- |
| Cc1nc2ccccc2n1C1CCN(CC(=O)NCc2ccc(F)cc2)CC1 | inconclusive [inhibitor, full curve, poor fit] |
| Cc1cc([N+](=O)[O-])ccc1NC(=O)COc1nsnc1N1CCOCC1 | inconclusive [inhibitor, partial curve] |
| CCCN1CCN(CCCNC(=O)c2cc3c(=O)n(CC)c4ccccc4c3s2)CC1 | inconclusive [inhibitor, single point] |
| C=CCn1c(O)c(N=NC(=O)OCC)c2ccccc21 | inconclusive [inhibitor, full curve, poor fit] |
| O=c1[nH]c(SCc2c(F)cccc2Cl)nc2c1CCC2 | inactive |
| CCc1cccc(C)c1NC(=O)COC(=O)c1ccc2c(c1)S(=O)(=O)c1ccccc1C2=O | inconclusive [inhibitor, partial curve, poor fit] |
| COc1ccc(Cn2c(=O)oc3ccc(C)cc32)cc1 | inconclusive [inhibitor, partial curve, poor fit] |
| O=[N+]([O-])c1ccc(CSc2ncnc3c2ncn3[C@@H]2O[C@H](CO)[C@@H](O)[C@H]2O)cc1 | inconclusive [inhibitor, full curve] |
| Cc1ccc(C(=O)Nc2nnn(C)n2)cc1 | inconclusive [inhibitor, full curve, poor fit] |
| N#Cc1c(SCc2ccccc2)sc(C(=O)c2ccccc2)c1N | inactive |
| COc1ccc(CNn2c(C)nc3ccccc3c2=O)cc1 | inactive |
| O=S(=O)(Cc1ccccc1)NCc1cccnc1 | inconclusive [inhibitor, full curve] |
| O=C(CCNc1ccc(F)cc1)c1cc2ccccc2o1 | inactive |
| CC(CCc1ccccc1)NC(=O)COC(=O)c1cccs1 (configuration not stated) | inconclusive [inhibitor, full curve, poor fit] |
| Cc1ccc(S(=O)(=O)NCCC(=O)NCC(c2cccs2)N2CCOCC2)cc1 (configuration not stated) | inconclusive [inhibitor, full curve, poor fit] |
| Fc1cccc(Cc2noc(CN3CCCCC3c3ccccn3)n2)c1 (configuration not stated) | inactive |
| Cc1nccn1CC(O)COc1ccc(Cl)cc1Cl (configuration not stated) | inconclusive [inhibitor, full curve, poor fit] |
| CC(=O)Nc1ccc(-c2cc(NC(C)=O)n(-c3ccccc3)n2)cc1 | inactive |
| Cc1ccc2c(c1)N(C(=O)CSc1nncn1C)C(C)(C)c1ssc(=S)c1-2 | inconclusive [inhibitor, full curve] |
| CCc1ccccc1NC(=O)CC1S/C(=N\c2nccs2)N(CC)C1=O (configuration not stated) | inconclusive [inhibitor, full curve, poor fit] |
| CC(=O)NCCNC(=O)CCCn1c(=O)[nH]c2ccsc2c1=O | inconclusive [inhibitor, single point] |
| CCOc1ccc(NC(=O)c2cc3cc4ccc(OC)cc4nc3o2)cc1 | inconclusive [inhibitor, full curve, poor fit] |
| CC12CC3(C)CC(C)(C1)CC(C(=O)Nc1nn[nH]n1)(C2)C3 | inconclusive [inhibitor, full curve, poor fit] |

| Compound | Potency |
| --- | --- |
| O=c1cc(CN2CCN(c3ccccc3F)CC2)c2cc3c(cc2o1)CCCC3 | inactive |
| CS(=O)(=O)N1CCN(c2ccccc2NC(=O)C(c2ccccc2)c2ccccc2)CC1 | inactive |
| O=C1NC[C@H](c2ccccc2)N(CC2CCCCC2)C1=O | inactive |
| O=C(CC1C(=O)NCCN1C(=O)c1ccccc1)Nc1cc(Cl)ccc1Cl (configuration not stated) | inconclusive [inhibitor, partial curve] |
| COc1ccc(-c2cccc(C(=O)N3CCOCC3)c2)cc1 | inconclusive [inhibitor, full curve, poor fit] |
| Cc1ccc(C)n1-c1ccsc1C(=O)CC#N | inconclusive [inhibitor, full curve, poor fit] |
| CC1(C)CC(=O)C(=CN2CCN(C(=O)c3ccco3)CC2)C(=O)C1 | inconclusive [inhibitor, full curve, poor fit] |
| Cc1ccc(NS(=O)(=O)c2cc(-c3cc(C)no3)ccc2C(C)C)nc1 | inconclusive [inhibitor, full curve, poor fit] |
| Cc1ccc(NC(=O)CN2C(=O)S/C(=C\c3cc(C)n(-c4cccc(C(=O)O)c4)c3C)C2=O)cc1 | inactive |
| Cc1ccc(-n2c(Cc3ccccc3)n[nH]c2=S)cc1 | inactive |
| CCc1cccc(NC(=O)Cn2c(C(=O)OC)cc3sc(Cl)cc32)c1 | inactive |
| CN(CC(=O)Nc1ccc(F)cc1)C(=O)COC(=O)/C=C/c1cccs1 | inconclusive [inhibitor, single point] |
| CCCCCC(=O)Nc1ccc(N2CCN(C(=O)c3ccccc3)CC2)cc1 | inconclusive [inhibitor, full curve, poor fit] |
| COc1ccccc1NS(=O)(=O)c1ccc(C(=O)Nc2ncccc2O)cc1 | inactive |
| O=C(COc1cccnc1[N+](=O)[O-])Nc1ccc2c(c1)OC(F)(F)O2 | inconclusive [inhibitor, full curve, poor fit] |
| COc1cccc(-n2c(CNc3ccc(F)cc3)nnc2SCC(N)=O)c1 | inconclusive [inhibitor, full curve, poor fit] |
| COc1ccc(N2C(N)=NC(N)=NC23CCCC3)cc1 | inactive |
| CC(=O)Nc1c2c(nn1-c1cccc(Cl)c1)CS(=O)C2 (configuration not stated) | inconclusive [inhibitor, partial curve] |
| Cc1nn(-c2ccccc2)c2[nH]c(=O)c(CNc3ccc(N4CCOCC4)cc3)cc12 | inconclusive [inhibitor, full curve, poor fit] |
| CC1CCN(Cc2c(C(=O)N/N=C/c3ccccc3O)nnn2-c2nonc2N)CC1 | inconclusive [inhibitor, partial curve, poor fit] |
| CCOC(=O)CSc1nc2ccccc2c(=O)n1CCCCCC(=O)NCc1ccco1 | inconclusive [inhibitor, partial curve, poor fit] |
| CCC(=O)c1ccc(OCC(=O)N2CCN(S(=O)(=O)c3ccc(Cl)s3)CC2)cc1 | inactive |
| O=C(CSc1n[nH]c(-c2cccnc2)n1)Nc1ccnc2ccccc12 | inconclusive [inhibitor, partial curve] |

| Compound | Potency |
| --- | --- |
| CCCSc1nc2c(cnn2-c2ccc(F)cc2)c(=O)[nH]1 | inconclusive [inhibitor, full curve] |
| O=C(CSc1nnc(CCCN2C(=O)c3cccc4cccc(c34)C2=O)n1-c1ccccc1)NCCCN1CCOCC1 | inconclusive [inhibitor, single point] |
| CC(C)c1nnc(NC(=O)CN(C)S(=O)(=O)c2ccc3c(c2)OCCO3)s1 | inconclusive [inhibitor, full curve, poor fit] |
| CC1Cc2nc(SCC(=O)N3CCCC3)n(C)c(=O)c2S1 (configuration not stated) | inconclusive [inhibitor, full curve, poor fit] |
| Cc1ccc(C(=O)COc2ccccc2N2C(=O)c3ccccc3C2=O)cc1 | inconclusive [inhibitor, full curve, poor fit] |
| O=C(Nc1nnc(-c2ccccc2Cl)o1)c1ccc(S(=O)(=O)N2CCCCCC2)cc1 | inconclusive [inhibitor, partial curve, poor fit] |
| O=S(=O)(NCC(c1ccccc1)N1CCNCC1)c1ccc(Cl)cc1 (configuration not stated) | inconclusive [inhibitor, single point] |
| Cc1ccc(C(C(=O)NC2CCCC2)N(C(=O)c2csnn2)C2CCCC2)o1 (configuration not stated) | inconclusive [inhibitor, full curve, poor fit] |
| Cn1cnnc1SCC(=O)Nc1ccc(F)cc1 | inconclusive [inhibitor, single point] |
| NC(=O)c1ccc[n+](CC(=O)OCCC23CC4CC(CC(C4)C2)C3)c1 | inconclusive [inhibitor, partial curve, poor fit] |
| CC(C)Cn1cc(NC(=O)N2CCN(c3ccc(F)cc3)CC2)c2ccccc2c1=O | inactive |
| CC(=O)c1ccc(NC(=O)CSC2=Nc3ccccc3N=C(c3ccc(F)cc3)C2)cc1 | inactive |
| COc1cc(OC)cc(-c2nc3nc(C)c(CCC(=O)Nc4cc(C)cc(C)c4)c(C)n3n2)c1 | inconclusive [inhibitor, full curve, poor fit] |
| Cc1ccc(-n2nc3c(=O)n(C(C)C(=O)NCc4ccc(OC(C)C)cc4)nc(C)c3c2C)cc1 (configuration not stated) | inactive |
| CCN(CC)CCNC(=O)CCc1c(C)nc2c(c(C)nn2-c2ccc(C)cc2)c1C | inactive |
| NC(=O)CSc1ncnc2c1nnn2Cc1ccc(F)cc1 | inconclusive [inhibitor, full curve, poor fit] |
| Cc1ccc(-c2cc(C(=O)Nc3nccs3)c3ccccc3n2)c(C)c1 | inactive |
| Cc1cc(NC(=O)CCNS(=O)(=O)c2cc(Br)cnc2N)ccc1Br | inconclusive [inhibitor, full curve, poor fit] |
| N#Cc1c(C(F)(F)F)cc(-c2ccccc2)nc1SCCN1CCOCC1 | inactive |
| O=C(N1CCN(Cc2ccc3c(c2)OCO3)CC1)C12CC3CC(CC(C3)C1)C2 | inconclusive [inhibitor, full curve, poor fit] |
| C=CCN(CC=C)C(=O)C1CCN(Cc2ccc(OCc3ccccc3)cc2)CC1 | inactive |
